According to PMC4336329 (PLoS ONE, 2015):
Out of some 310,000 compounds screened, about 14,000 (4.5%) showed an effect of 50% or more. The effect is printed as a negative number. This is one part of the list.
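Also: peak tail current of the secondary pulse compared with the same well before compound.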

These compounds were tested against human ether-à-go-go-related gene (hERG) potassium channel (human, UniProt Q12809) (assay: primary screen, population patch clamp on CHO cells stably expressing hERG).
Chain of human ether-à-go-go-related gene (hERG) potassium channel (Q12809 whole entry, looked up): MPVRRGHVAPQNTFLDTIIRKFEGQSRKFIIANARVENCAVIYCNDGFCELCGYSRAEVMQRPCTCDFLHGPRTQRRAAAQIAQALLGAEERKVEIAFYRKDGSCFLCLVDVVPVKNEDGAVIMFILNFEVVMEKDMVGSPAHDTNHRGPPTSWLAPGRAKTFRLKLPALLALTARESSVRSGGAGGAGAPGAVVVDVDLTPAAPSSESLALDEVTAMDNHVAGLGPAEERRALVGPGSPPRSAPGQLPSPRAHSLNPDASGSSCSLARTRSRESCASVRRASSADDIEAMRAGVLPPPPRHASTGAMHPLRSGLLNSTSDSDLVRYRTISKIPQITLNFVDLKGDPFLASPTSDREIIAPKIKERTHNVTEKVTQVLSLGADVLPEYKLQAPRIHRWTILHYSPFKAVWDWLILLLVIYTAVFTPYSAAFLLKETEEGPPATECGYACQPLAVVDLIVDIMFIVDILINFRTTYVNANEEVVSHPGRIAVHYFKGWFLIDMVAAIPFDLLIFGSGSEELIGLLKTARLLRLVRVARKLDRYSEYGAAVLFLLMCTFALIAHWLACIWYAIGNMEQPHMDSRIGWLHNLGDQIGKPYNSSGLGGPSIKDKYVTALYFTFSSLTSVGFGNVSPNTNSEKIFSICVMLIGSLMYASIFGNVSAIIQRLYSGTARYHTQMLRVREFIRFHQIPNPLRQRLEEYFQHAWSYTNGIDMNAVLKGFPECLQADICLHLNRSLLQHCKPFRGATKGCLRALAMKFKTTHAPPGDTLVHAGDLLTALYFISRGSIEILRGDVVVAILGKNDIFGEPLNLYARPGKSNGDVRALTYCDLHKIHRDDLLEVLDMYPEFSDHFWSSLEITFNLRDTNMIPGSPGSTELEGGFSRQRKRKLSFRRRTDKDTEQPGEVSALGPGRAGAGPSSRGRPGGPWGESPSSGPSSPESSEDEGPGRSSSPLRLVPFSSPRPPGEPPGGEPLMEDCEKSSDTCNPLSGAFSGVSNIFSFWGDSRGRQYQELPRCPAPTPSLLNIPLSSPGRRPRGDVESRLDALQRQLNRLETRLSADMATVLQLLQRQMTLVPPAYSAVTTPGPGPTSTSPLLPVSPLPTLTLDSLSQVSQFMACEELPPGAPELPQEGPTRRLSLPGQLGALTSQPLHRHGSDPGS
With CC(C)Cc1cc(-c2ccco2)c(C#N)c(N)n1 the “hERG current change (%, negative = inhibition) at 10uM” value was 1.51%. CC1(C)CC(=O)C=C(NCc2ccccc2)C1 was tested, and the “hERG current change (%, negative = inhibition) at 10uM” value was -4.83%. For O=C1N/C(=N/N=C/c2ccco2)SC1Cc1ccccc1 (stereo not shown), the “hERG current change (%, negative = inhibition) at 10uM” value was 0.361%. With Cc1cc(C)c(C#N)c(SCC(=O)NC(C)(C)C)n1 the “hERG current change (%, negative = inhibition) at 10uM” value was -19.7%. O=C(CCCN1C(=O)/C(=C\c2ccccc2)SC1=S)Nc1ccc(O)cc1 was tested, and the “hERG current change (%, negative = inhibition) at 10uM” value was 1.61%. With CC(C)[C@H](NC(N)=O)C(=O)Nc1ccc2c(c1)CCC2 the “hERG current change (%, negative = inhibition) at 10uM” value was -2.49%. With O=C(COc1ccc(S(=O)(=O)N2CCCC2)cc1Cl)N1CCN(c2ccccc2)CC1 the “hERG current change (%, negative = inhibition) at 10uM” value was -15.5%. O=C(CSc1ccc(F)cc1)Nc1ccc(N2CCOCC2)c(Cl)c1 was tested, and the “hERG current change (%, negative = inhibition) at 10uM” value was -20.3%. For COc1ccc(CCN(C)C(=O)c2ccc(OCC(=O)N3CCOCC3)c(OC)c2)cc1OC, the “hERG current change (%, negative = inhibition) at 10uM” value was 24.1%. In the case of CN(C)C(=O)c1cc(C(=O)c2c(F)cccc2F)c[nH]1, the “hERG current change (%, negative = inhibition) at 10uM” value is reported as 14.9%. COc1ccc(CCNC2CC(=O)N(CCc3ccc(OC)c(OC)c3)C2=O)cc1 (stereo not shown) was tested, and the “hERG current change (%, negative = inhibition) at 10uM” value was 2.18%. With Cc1cc(O)c(NC(=O)c2ccco2)cc1C the “hERG current change (%, negative = inhibition) at 10uM” value was 1.74%. With Cc1nc(Cl)c(C(=O)NCc2ccccc2)c(C)c1Cl the “hERG current change (%, negative = inhibition) at 10uM” value was 7.85%. COc1ccc(Nc2nc(C)cc(-c3cc(-c4ccccc4)on3)n2)cc1 was tested, and the “hERG current change (%, negative = inhibition) at 10uM” value was 9.62%. In the case of CN(C(=O)c1ccc(NC(=O)Cc2ccccc2)cc1)c1ccccc1, the “hERG current change (%, negative = inhibition) at 10uM” value is reported as 1.32%. COc1ccccc1N1CCN(C(=O)/C=C/c2cccc([N+](=O)[O-])c2)CC1 was tested, and the “hERG current change (%, negative = inhibition) at 10uM” value was -16.1%. In the case of COc1ccccc1OCC(=O)Nc1ccc(O)cc1C(=O)O, the “hERG current change (%, negative = inhibition) at 10uM” value is reported as 0.029%. CC1(C(=O)NCC2CC2)C=CC2(CCCCC2)N1C(=O)c1ccccc1 (stereo not shown) was tested, and the “hERG current change (%, negative = inhibition) at 10uM” value was -14.3%. With COc1ccc(-c2c(-c3cc(OC)cc(OC)c3)n(C)c3ccc(-c4cccc5[nH]ccc45)cc23)cc1 the “hERG current change (%, negative = inhibition) at 10uM” value was 16.7%. With CC1Cc2ccccc2N1C(=O)COC(=O)CSc1ccc(F)cc1 (stereo not shown) the “hERG current change (%, negative = inhibition) at 10uM” value was -10.1%. For CCOc1ccccc1NC(=O)c1ccc([N+](=O)[O-])cc1, the “hERG current change (%, negative = inhibition) at 10uM” value was 6.23%. Cc1oc2c(c(C)cc3oc(=O)c(CC(=O)NCC(=O)NCC(=O)O)c(C)c32)c1C was tested, and the “hERG current change (%, negative = inhibition) at 10uM” value was 10.7%. For CC(C)CNC(=S)NNC(=O)c1nn(C)cc1Cl, the “hERG current change (%, negative = inhibition) at 10uM” value was -7.21%. For O=C(c1cc(F)ccc1F)C1CCCN(C(=O)c2ccc(F)cc2Cl)C1 (stereo not shown), the “hERG current change (%, negative = inhibition) at 10uM” value was -23.3%. With CCC1Nc2ncnc(N3CCCCC3)c2N(Cc2ccc(Br)cc2)C1=O.O=C(O)C(F)(F)F (stereo not shown) the “hERG current change (%, negative = inhibition) at 10uM” value was -47%. O=C(COC(=O)Cc1ccsc1)Nc1ccc(S(=O)(=O)N2CCOCC2)cc1 was tested, and the “hERG current change (%, negative = inhibition) at 10uM” value was 1.21%. In the case of Clc1ccc(-n2nnnc2-c2cnc3ccc(Cl)cc3c2-c2ccccc2)cc1, the “hERG current change (%, negative = inhibition) at 10uM” value is reported as 5.46%. With COc1ccc(/C=C\c2onc(C)c2S(=O)(=O)N2CCC(C(=O)NCc3ccco3)CC2)cc1 the “hERG current change (%, negative = inhibition) at 10uM” value was -4.91%. With CN(c1ccccc1)S(=O)(=O)c1cccc(NC(=O)CN2CCCc3ccccc32)c1 the “hERG current change (%, negative = inhibition) at 10uM” value was -2.81%. In the case of Cc1c(NC2=CC(=O)CC(C)(C)C2)c(=O)n(-c2ccccc2)n1C, the “hERG current change (%, negative = inhibition) at 10uM” value is reported as 9.39%. CCn1c(=O)c(C(=O)NCCCO)c(O)c2ccccc21 was tested, and the “hERG current change (%, negative = inhibition) at 10uM” value was 10.1%. With Cc1cc(C)n(CCNC(=O)c2ccco2)n1 the “hERG current change (%, negative = inhibition) at 10uM” value was 11.9%. In the case of FC(F)(F)c1cc(C(F)(F)F)c2ccc(N3CCN(c4ccccc4)CC3)nc2n1, the “hERG current change (%, negative = inhibition) at 10uM” value is reported as 3.36%. O=c1c2[nH]c3ccc(Br)cc3c2ncn1CCCn1ccnc1 was tested, and the “hERG current change (%, negative = inhibition) at 10uM” value was -64.4%. In the case of O=C(NCc1ccc(F)cc1)c1ccc2c(c1)S(=O)(=O)c1ccccc1C2=O, the “hERG current change (%, negative = inhibition) at 10uM” value is reported as -0.602%. In the case of O=C(NC1CC2CCCC(C1)N2C(=O)NC1CCCCC1)c1ccccc1 (stereo not shown), the “hERG current change (%, negative = inhibition) at 10uM” value is reported as -0.519%. With C=CCNC(=O)c1ccc(-c2nc3ccccc3nc2-c2ccccc2)cc1 the “hERG current change (%, negative = inhibition) at 10uM” value was -38.3%. For Cc1cc(C(=O)COC(=O)CCc2nc3ccccc3s2)c(C)n1C, the “hERG current change (%, negative = inhibition) at 10uM” value was 2.19%. With COc1ccccc1CCC(=O)OCC(=O)Nc1cc(S(=O)(=O)N2CCOCC2)ccc1C the “hERG current change (%, negative = inhibition) at 10uM” value was -44.3%. O=C(Nc1cccc(S(=O)(=O)N2CCCCC2)c1)c1cc2ccccc2o1 was tested, and the “hERG current change (%, negative = inhibition) at 10uM” value was -11.1%. In the case of COc1ccc(CN2CC(=O)N3[C@H]4c5ccc(OC)cc5OC[C@@H]4[C@H](c4ccccc4)[C@]3(C)C2=O)cc1, the “hERG current change (%, negative = inhibition) at 10uM” value is reported as 8.67%. With COc1ccc(CCNC(=O)CCN2C(=O)c3cccc4cccc(c34)C2=O)cc1OC the “hERG current change (%, negative = inhibition) at 10uM” value was -6.69%. With O=c1c2ccccc2ncn1C1CCCCC1 the “hERG current change (%, negative = inhibition) at 10uM” value was -19.4%.
